# Results taken from PubChem BioAssay AID602332 (National Center for Advancing Translational Sciences (NCATS), 2012).
# “And” between values parts separate entries of the source, which are not always exact repeats. Identical values can stand only once. Screen size: about 420,000 compounds; about 75 (0.02%) were called active. Inconclusive results, whose numbers are uncertain, are shown with a selection of clear calls. Calls follow the shape of the dose curve; as a rule, active = well fitted activation curve with a large enough effect; inconclusive = small, poorly fitted or top-dose-only effect; inactive = no such curve, though single readings can be large or run the other way. Potencies beside an inconclusive call are fits to weak or partial responses and may not hold up.
# Assay: qHTS for Inducers of the Endoplasmic Reticulum Stress Response (ERSR) in Human Glioma: qHTS; also: nearly all actives have a fitted effect of over 35% in size; as to activation: % of control where 0% means no effect
# Conditions: U87-MG GRP78 promoter luciferase reporter, 16 h; activation: hits give high values
# Method in brief: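 ERSR induction read as luciferase luminescence (Bright-Glo, 10 min at room temperature) in stably transfected human U87-MG glioma cells exposed to compounds for 16 h, using GRP78 as sensor.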
# Potency is read from the fitted curve at half-maximal effect; tags tell the direction and shape of the fitted curve.
SMILES,activation,Potency
O=C(Nn1cnnc1)c1cc2cc(Br)ccc2oc1=O,inactive: -4.49%,–
COc1ccc(OC)c(/C=C/C(=O)c2ccc(Cl)cc2)c1,–,"inconclusive: 15.8 µM [activator, single point]"
COC(=O)CS(=O)(=O)c1cc([N+](=O)[O-])ccc1NC(=O)OC,–,"inconclusive: 44.7 µM [activator, partial curve, poor fit]"
Clc1ccccc1/C=C/c1ccnc2ccccc12,–,"inconclusive: 28.2 µM [activator, single point]"
Cc1ccc(NC(=O)Nc2ccc3c(c2)OCO3)c(Br)c1,–,"inconclusive: 2 µM [activator, full curve, poor fit]"
Oc1cccc(/C=C/c2ccc3cccc(O)c3n2)c1,–,"inconclusive: 50.1 µM [activator, single point]"
CCOc1ccccc1C(=O)Nc1ccc2nc3c(c(Nc4ccc(OC)c(OC)c4)c2c1)CCCC3,inactive: -10.5%,–
Cc1ccc(S(=O)(=O)Nc2cccc3cccnc23)c([N+](=O)[O-])c1,–,"inconclusive: 63.1 µM [activator, single point]"
CN1CCN(c2ccc(S(=O)(=O)N3CCCCC3)cc2NC(=O)/C=C/c2ccc(Cl)c([N+](=O)[O-])c2)CC1,–,"inconclusive: 20 µM [activator, single point]"
CC(C)(C)c1cc(-c2csc(Nc3ccccc3)[n+]2Cc2ccc(C(=O)O)cc2)cc(C(C)(C)C)c1O,–,"inconclusive: 44.7 µM [activator, single point]"
CN(C(=O)c1ccc(Br)o1)C1CCCCC1,–,"inconclusive: 39.8 µM [activator, partial curve, poor fit]"
COC(=O)c1cc(S(=O)(=O)N2CCN(c3ccccc3)CC2)c[nH]1,inactive: -5.11%,–
COc1ccccc1-c1cc(C(F)(F)F)nc(S(=O)(=O)CCCC(=O)Nc2cc(C)on2)n1,–,"inconclusive: 44.7 µM [activator, partial curve, poor fit]"
O=c1oc2c(O)c(O)cc3c(=O)oc4c(O)c(O)cc1c4c23,inactive: 15% and inactive: 17.5% and inactive: -2.24%,"inconclusive: 22.4 µM [activator, partial curve, poor fit]"
O=C(Cc1ccc(-c2ccccc2)cc1)Nc1ncccc1O,–,"inconclusive: 22.4 µM [activator, single point]"
O=C(c1ccccc1NS(=O)(=O)c1ccc([N+](=O)[O-])cc1[N+](=O)[O-])N1O[C@@H]2C=C[C@H]1C2,–,"inconclusive: 50.1 µM [activator, single point]"
CC1CCCCC1NC(=O)/C(C#N)=C/c1ccc2c(c1)OCCO2 (stereo not drawn),–,"inconclusive: 44.7 µM [activator, single point]"
O=C(CCS(=O)(=O)c1nc(-c2ccc3c(c2)OCO3)cc(C(F)(F)F)n1)Nc1ccc(F)cc1F,–,"inconclusive: 22.4 µM [activator, single point]"
CC(C)NS(=O)(=O)c1ccc(NC(=O)C(C)Oc2ccc(C(=O)c3ccccc3)cc2)cc1 (stereo not drawn),–,"inconclusive: 11.2 µM [activator, full curve, poor fit]"
COC(=O)c1ccccc1NC(=O)/C=C/c1cc(OC)c(OC)c(OC)c1,inactive: 0.253%,–
CCS(=O)(=O)c1ncc(Cl)c(C(=O)Nc2ccccc2OC)n1,–,"inconclusive: 50.1 µM [activator, single point]"

SMILES,activation,Potency
COc1ccc(C(CNC(=O)COc2cc(C)ccc2Cl)N2CCCCC2)cc1 (stereo not drawn),inactive: -3.26%,–
COc1cc(C)ccc1OCc1cc(C(=O)N(C)CCCN2CCOCC2)no1,–,"inconclusive: 31.6 µM [activator, single point]"
Cc1ccc2ncc(C)c(/C=C/c3ccc(N(C)C)cc3)c2c1,–,"inconclusive: 44.7 µM [activator, single point]"
CCOC(=O)c1c(-c2cccc(C)c2)csc1NC(=O)C1CC=CCC1C(=O)O (stereo not drawn),–,"inconclusive: 50.1 µM [activator, single point]"
Cc1ccc(-n2c(C)cc(/C=N/Nc3ccc([N+](=O)[O-])cn3)c2C)cc1,inactive: 2.13%,–
C[C@]12CC[C@@H]3c4ccc(OC(=O)c5ccccc5)cc4CC[C@H]3[C@@H]1CC[C@@H]2O,–,"inconclusive: 44.7 µM [activator, partial curve, poor fit]"
Clc1ccc(Nc2nc(-c3cccnc3)cs2)cc1,–,"inconclusive: 2.24 µM [activator, full curve, poor fit]"
CCOc1ccc(C2c3c(-c4ccc(C)cc4)n[nH]c3C(=O)N2c2ccc(Cl)cc2)cc1 (stereo not drawn),–,"inconclusive: 12.6 µM [activator, partial curve, poor fit]"
CCCOc1ccccc1/C=C(\C#N)C(=O)Nc1cccc(C)n1,inactive: 6.65%,–
CC(C(=O)N1CCN(C(=O)c2ccco2)CC1)n1sc2ccccc2c1=O (stereo not drawn),–,"inconclusive: 11.2 µM [activator, single point]"
O=S(=O)(Nc1cc(Br)cc2cccnc12)c1cccc2ccccc12,–,"inconclusive: 50.1 µM [activator, single point]"
C=CCOC(=O)C1=C(C)NC(SCC(=O)OCC)=C(C#N)C1c1ccc(O)c(OC)c1 (stereo not drawn),–,"inconclusive: 44.7 µM [activator, partial curve, poor fit]"
Cc1ccc(C)c(N2CCN(C(=O)c3cnc4c(-c5ccccc5)c(C)nn4c3C)CC2)c1,inactive: -1.79%,–
CN(C)CCCN(C(=O)COc1ccccc1)c1nc2c(Cl)cccc2s1,–,"inconclusive: 28.2 µM [activator, single point]"
COc1ccc(Br)cc1C1C2C=CCC(C)C2C(=O)N1Cc1ccccc1 (stereo not drawn),–,"inconclusive: 50.1 µM [activator, single point]"
CCOc1ccc(NC(=O)C2CCCN(c3c(CC)c(C)nc4ncnn34)C2)cc1 (stereo not drawn),–,"inconclusive: 70.8 µM [activator, single point]"
c1ccc(CCCCN2C(Nc3ccccc3)=NC[C@@H]2Cc2ccccc2)cc1,inactive: -6.17%,–
CC(C)C(=O)N1CCN(c2ccccc2NC(=O)c2ccc([N+](=O)[O-])o2)CC1,–,"inconclusive: 35.5 µM [activator, partial curve, poor fit]"
Cc1cccc(NC(=O)c2nc[nH]c2C(=O)N[C@@H](CC(C)C)C(=O)OCc2ccccc2)c1,inactive: 8.16%,–
Nc1nc(NC(=O)c2ccccc2)nn1-c1ccccc1,inactive: -1.04%,–
O=c1c2c3nc4ccccc4nc3n(Cc3ccccc3)c2ncn1Cc1ccco1,–,"inconclusive: 44.7 µM [activator, partial curve, poor fit]"

SMILES,activation,Potency
CCOC(=O)c1cnc2c(C(F)(F)F)cccc2c1NCCCN1CCOCC1,–,"inconclusive: 11.2 µM [activator, single point]"
CCOC(=O)CC[C@H](NC(=O)Cn1cnc2c(NCc3ccccc3)ncnc21)C(=O)OCC,–,"inconclusive: 39.8 µM [activator, partial curve, poor fit]"
COc1ccc(/C=N/N2CCOCC2)cc1COc1ccc(Cl)cc1,inactive: 1.53%,–
Clc1ccc(/C=N/NC2=Nc3cccc4cccc2c34)cc1,inactive: -10.4%,–
Cc1ccc(S(=O)(=O)CCc2nnc(NC(=O)CCl)s2)cc1C,–,"inconclusive: 44.7 µM [activator, partial curve, poor fit]"
N#C/C(=C\c1ccc(-c2ccc(F)cc2)o1)C(=O)Nc1nc(-c2cccs2)cs1,inactive: -0.648%,–
Cc1ccc(CSc2nc3cccnc3n2Cc2ccc(C(=O)NC3CCCCC3)cc2)cc1,inactive: 4.08%,–
COC(=O)[C@H](Cc1ccccc1)NC(=O)[C@@H]1C[C@H]1[C@@H](NC(=O)OCc1ccccc1)c1ccccc1,–,"inconclusive: 50.1 µM [activator, single point]"
OCCn1cnc2c(SCc3ccccc3)ncnc21,–,"inconclusive: 15.8 µM [activator, single point]"
Nc1ccccc1NC(=O)c1ccccc1,–,"inconclusive: 11.2 µM [activator, full curve, poor fit]"
CC(=O)N(C)c1ccc(NC(=S)Nc2cccc3ccccc23)cc1,–,"inconclusive: 7.94 µM [activator, partial curve, poor fit]"
O=C(Nc1ccc([N+](=O)[O-])cc1)C(Cc1ccccc1)N1C(=O)c2cccc3cccc(c23)C1=O (stereo not drawn),–,"inconclusive: 11.2 µM [activator, single point]"
CC(=O)C1(O)CCC2C3CCC4CC(O)CCC4(C)C3C(=O)CC21C (stereo not drawn),inactive: -4.52%,–
C#CC[N+](CC)(CC)CC#Cc1cccc(Cl)c1,inactive: -6.67%,–
Cc1ccc(/C(O)=C/c2nc3ccccc3oc2=O)cc1,–,"inconclusive: 10 µM [activator, partial curve, poor fit]"
Nc1ccc(Oc2ccc(F)cc2)nc1,inactive: -2.63%,–
COc1cccc(-c2cnc3c(NC(C)=O)cc(-c4ccc(OC)c(OC)c4)cn23)c1,–,"inconclusive: 35.5 µM [activator, partial curve, poor fit]"
COc1ccc(C2=NOC(C(=O)Nc3cc(Br)ccc3O)C2)cc1OC (stereo not drawn),inactive: -1.72%,–
CCOc1ccc(NS(=O)(=O)c2cc(C)c(C)cc2C)cc1,–,"inconclusive: 15.8 µM [activator, single point]"
O=C(Nc1cccc2cccnc12)c1cccc([N+](=O)[O-])c1,–,"inconclusive: 11.2 µM [activator, partial curve, poor fit]"
